The values below come from PubChem BioAssay AID1159614 (National Center for Advancing Translational Sciences (NCATS), 2016).

The campaign covered roughly 45,000 compounds. About 65 (0.1%) were called active. Calls come from the whole dose curve; as a rule, active = well fitted activation curve with a large enough effect; inconclusive = small, poorly fitted or top-dose-only effect; inactive = no such curve, though single readings can be large or run the other way. The list shows a part of the results.

UniProt P54803, sequence (P54803 whole entry, looked up): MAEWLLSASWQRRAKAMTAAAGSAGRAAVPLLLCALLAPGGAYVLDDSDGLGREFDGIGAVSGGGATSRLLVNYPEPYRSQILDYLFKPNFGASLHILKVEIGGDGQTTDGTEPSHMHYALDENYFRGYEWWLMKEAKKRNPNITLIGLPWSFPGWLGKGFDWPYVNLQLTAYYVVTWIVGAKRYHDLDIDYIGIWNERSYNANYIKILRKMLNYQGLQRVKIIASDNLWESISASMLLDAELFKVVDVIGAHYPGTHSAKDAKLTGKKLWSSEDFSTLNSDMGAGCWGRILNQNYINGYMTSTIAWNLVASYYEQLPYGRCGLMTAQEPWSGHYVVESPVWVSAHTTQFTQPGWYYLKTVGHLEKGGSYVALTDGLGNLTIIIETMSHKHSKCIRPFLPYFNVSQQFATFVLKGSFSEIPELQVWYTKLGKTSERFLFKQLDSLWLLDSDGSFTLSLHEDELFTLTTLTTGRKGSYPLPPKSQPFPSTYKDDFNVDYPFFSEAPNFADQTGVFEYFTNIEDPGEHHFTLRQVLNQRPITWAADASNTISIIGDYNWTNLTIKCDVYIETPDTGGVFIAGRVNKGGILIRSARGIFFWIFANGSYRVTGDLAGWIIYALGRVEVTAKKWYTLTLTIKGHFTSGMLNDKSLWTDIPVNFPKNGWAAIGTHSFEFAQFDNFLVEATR

The target of the assay is Galactocerebrosidase (Homo sapiens) (UniProt P54803). Kind of assay: A Novel Cell-Based Assay to Identify Small Molecules for B -Galactocerebrosidase. Note: 0% is about no effect; nearly all actives have a fitted effect of over 65% in size. As to conditions: 145M-Twi-hGALC-G270D cells, HMU-beta-Gal fluorescence, 48 h; series mostly up to 57.5 µM; activation: at the top concentration. The essentials:
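qHTS, 1536-well; 145M-Twi-hGALC-G270D cells (WT line also made) in DMEM/F12 + 10% FBS; compound incubation on live cells; HMU-β-gal 0.1 mM final, pH 5.2, NaTC; carbonate stop; fluorescence increase = enhanced residual activity.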
Turning to `COc1cccc(CNC(=O)Cc2csc3ccccc23)c1OC`, the “activation” value was inactive: -14.5%.
As for `COc1ccc(NC(=O)C(=O)NCC2(c3ccc(OC)c(OC)c3)CCCC2)cc1`, the “activation” value was inactive: -31.8%.
The figure for `Cc1cc(C)c(NS(=O)(=O)c2ccc(-c3cnc(C4CC4)o3)cc2)c(C)c1` is inactive: -38.9%.
Turning to `O=C(COCc1cc(-c2cccs2)on1)NCc1ccc(Cl)cc1`, the “activation” value is inactive: -26.7%.
In the case of `COc1cc(NC(=O)Cn2nnc(-c3ccc(C(F)(F)F)cc3)n2)c(C(=O)O)cc1OC`, the “activation” value was inactive: -5.36%.
To `CCOc1ccc(N(CC)C(=O)C2CCN(S(=O)(=O)c3cccc4nonc34)CC2)cc1` belongs inactive: -14.2%; to `COc1cccc(OCc2nc3ccccc3n2Cc2ccccc2C)c1`, inactive: -12.3%.
To `COc1ccc(NC(=O)CCCSc2nc(-c3ccco3)cc(C(F)(F)F)n2)c(OC)c1` belongs inactive: 5.32%; to `CCC(=O)n1nc(-c2cccnc2)nc1NCc1ccc(F)cc1`, inactive: -16.1%.
On to `O=C(Cn1c(=O)oc2cc(S(=O)(=O)NCc3ccccc3)ccc21)Nc1ccc(F)c(Cl)c1`, for which the “activation” value is inactive: -6.57%.
As for `COc1ccc(CCC(=O)NC2CC(=O)N(c3cccc(F)c3)C2)cc1` (centres undefined), the “activation” value was inactive: -9.8%.
On to `Cc1c(Cl)cccc1Nc1nc(N)nc(CSc2nc3ccccc3s2)n1`, for which the “activation” value is inactive: -11.4%.
To `CC1CCN(S(=O)(=O)c2ccc3c(c2)N(CC(=O)NCCc2ccc(Cl)cc2)C(=O)CO3)CC1` belongs inactive: -4.07%.
Take `Cc1ccc(NC(=O)CCCn2c3ccccc3c(=O)c3cc(C)ccc32)c(Br)c1`: the “activation” value was inactive: -16.4%.
To `CCOC(=O)c1c(C)[nH]c(C)c1S(=O)(=O)N1CCC(C(=O)N2CCN(c3cc(C)ccc3C)CC2)CC1` belongs inactive: -14.1%; to `Cc1ccc2oc(C(=O)Nc3ccc(S(=O)(=O)Nc4onc(C)c4C)cc3)cc(=O)c2c1`, inactive: -20.8%; to `O=C1CS(=O)(=O)C2(C(=O)N(Cc3ccc(F)cc3)c3ccccc32)N1c1cccc(C(F)(F)F)c1` (centres undefined), inactive: -25.6%.
Consider `O=C1SC(Nc2ccc(Cl)cc2)C(=O)N1Cc1ccccc1` (centres undefined), for which the “activation” value was inactive: 4.11%.
To `CCCc1cc(=O)n2[nH]c(NCc3ccc(CC)cc3)nc2n1` belongs inactive: -16.1%.
The figure for `O=C1c2[nH]nc(-c3ccccc3)c2C(c2ccccc2)N1c1cccc(C(F)(F)F)c1` (centres undefined) is inactive: -3.38%.
`CCCCCC(N)=O`: the “activation” value was inactive: -17.9%.
As for `CCCCNC(=O)C1=CC(c2ccc3c(c2)OCO3)=NS(=O)(=O)N1C`, the “activation” value was inactive: -3.97%.
For the compound `CCCC(=O)Nc1nnc(SCc2cc(=O)c3ccc(C)cc3[nH]2)s1`, the “activation” value was inactive: -37.9%.
For `COc1cccc(C(=O)NCC(=O)OCc2cc(=O)n3nc(C)sc3n2)c1`, the “activation” value was inactive: -10.5%.
To `O=C(CSc1ncc(S(=O)(=O)c2ccc(Cl)cc2)c(=O)[nH]1)Nc1ccc2c(c1)OCCO2` belongs inactive: -14.1%.
To `Cc1ccc(Cl)cc1N1CCN(C(=O)Cn2ncc3c([nH]c4ccccc43)c2=O)CC1` belongs inactive: 2.82%; to `Cc1ccc(-n2nc(CO)c(C(=O)NCCc3ccccc3)n2)cc1`, inactive: -9.34%; to `COc1cccc(-n2c(=O)c3sc4ccccc4c3n(CC(=O)Nc3ccccc3OC)c2=O)c1`, inactive: -16.3%.
The figure for `CCOc1ccc(N(C)C(=O)C2CCN(S(=O)(=O)c3ccc4c(c3)CCCN4C(C)=O)CC2)cc1` is inactive: -19.5%.
For the compound `CCC(Sc1nc2ccncc2[nH]1)C(=O)Nc1ccc(F)cc1` (centres undefined), the “activation” value is inactive: -15.7%.
To `C[C@H]1C[C@H]2[C@@H]3CCC4=CC(=O)C=C[C@]4(C)[C@@]3(Cl)[C@@H](O)C[C@]2(C)[C@@]1(O)C(=O)CO` belongs inactive: -19.6%; to `CCOC(=O)N1CCN(C(=O)c2ccc3c(c2)N(Cc2cc(C)ccc2C)C(=O)c2ccccc2S3=O)CC1` (centres undefined), inactive: -6.96%.
To `COc1ccc(CCNC(=O)CCc2cn(Cc3ccc(C)cc3)c3ccccc23)cc1OC` belongs inactive: -3.44%; to `CCCCOc1nnc(-c2ccc(OCC)cc2)c2ccccc12`, inactive: -12.4%; to `O=C(CSc1nnc(-c2ccc(Cl)cc2)o1)N1CCc2ccccc21`, inactive: -9.04%.
`Cc1ccc(Cn2cnc3c(oc4ccccc43)c2=O)cc1`: the “activation” value was inactive: -6.07%.
In the case of `Cc1cc(C)cc(NC(=O)C(NS(=O)(=O)c2cccc3nsnc23)c2ccccc2)c1` (centres undefined), the “activation” value is inactive: -27.6%.
The figure for `O=C(Nc1onc2c1CCCC2)c1ccc(Cl)cc1` is inactive: -3.83%; for `CCc1nc2nc(C)cc(Nc3ccc(Br)cc3F)n2n1` it is inactive: -8.85%.
`COc1cc2nc(N3CCN(C(=O)C4CCCO4)CC3)nc(N)c2cc1OC` (centres undefined): the “activation” value is inactive: -10.7%.
Consider `Cc1ccccc1NC(=O)c1c2c(nc3ccccc13)C(=O)N(C1CCCCC1)C2`, for which the “activation” value is inactive: -6.16%.
The figure for `CCCCn1c2ccccc2c2nnc(SCC(=O)Nc3ccc(NC(C)=O)cc3)nc21` is inactive: -27.8%.
`Cc1oc2ccc(O)c(CN(C)Cc3ccccc3)c2c1C(=O)Nc1cccc(Cl)c1C`: the “activation” value is inactive: -9.35%.
To `Cc1ccc2c(=O)c(C(=O)c3ccc(F)cc3)cn(CC(=O)NC3CCCCC3)c2n1` belongs inactive: -11.7%; to `CC(=O)Nc1ccc(S(=O)(=O)Nc2ccc(-c3cn4c(C)csc4n3)cc2)cc1`, inactive: -6%; to `COC(=O)c1cc(S(=O)(=O)N2CCN(c3cccc(C)c3)C(C)C2)c[nH]1` (centres undefined), inactive: -11.8%.
Turning to `COc1ccccc1-c1cc(C(F)(F)F)nc(S(=O)(=O)CCCC(=O)Nc2cc(C)ccc2O)n1`, the “activation” value is inactive: -11.3%.
The figure for `Cc1cccc(-c2nnc3n(CCc4ccccc4)c(=O)c4ccccc4n23)c1` is inactive: -16.5%; for `CCOc1ccc(-n2c(SCC(=O)NCc3ccco3)nc3c([nH]c4ccccc43)c2=O)cc1` it is inactive: -1.67%.
